Data from paper PMC4432656.
Substitutions are numbered along the chain they refer to. These are yes or no findings as the source states them, for the method shown. Binding seen in cells or lysates may run through a third protein. Some binding calls cover weakened binding; strength is not graded here. Tags and fused reporters may be left off the sequences shown.

Chains of the proteins cited; added tags and fusions are not shown.
UniProt A2BH40: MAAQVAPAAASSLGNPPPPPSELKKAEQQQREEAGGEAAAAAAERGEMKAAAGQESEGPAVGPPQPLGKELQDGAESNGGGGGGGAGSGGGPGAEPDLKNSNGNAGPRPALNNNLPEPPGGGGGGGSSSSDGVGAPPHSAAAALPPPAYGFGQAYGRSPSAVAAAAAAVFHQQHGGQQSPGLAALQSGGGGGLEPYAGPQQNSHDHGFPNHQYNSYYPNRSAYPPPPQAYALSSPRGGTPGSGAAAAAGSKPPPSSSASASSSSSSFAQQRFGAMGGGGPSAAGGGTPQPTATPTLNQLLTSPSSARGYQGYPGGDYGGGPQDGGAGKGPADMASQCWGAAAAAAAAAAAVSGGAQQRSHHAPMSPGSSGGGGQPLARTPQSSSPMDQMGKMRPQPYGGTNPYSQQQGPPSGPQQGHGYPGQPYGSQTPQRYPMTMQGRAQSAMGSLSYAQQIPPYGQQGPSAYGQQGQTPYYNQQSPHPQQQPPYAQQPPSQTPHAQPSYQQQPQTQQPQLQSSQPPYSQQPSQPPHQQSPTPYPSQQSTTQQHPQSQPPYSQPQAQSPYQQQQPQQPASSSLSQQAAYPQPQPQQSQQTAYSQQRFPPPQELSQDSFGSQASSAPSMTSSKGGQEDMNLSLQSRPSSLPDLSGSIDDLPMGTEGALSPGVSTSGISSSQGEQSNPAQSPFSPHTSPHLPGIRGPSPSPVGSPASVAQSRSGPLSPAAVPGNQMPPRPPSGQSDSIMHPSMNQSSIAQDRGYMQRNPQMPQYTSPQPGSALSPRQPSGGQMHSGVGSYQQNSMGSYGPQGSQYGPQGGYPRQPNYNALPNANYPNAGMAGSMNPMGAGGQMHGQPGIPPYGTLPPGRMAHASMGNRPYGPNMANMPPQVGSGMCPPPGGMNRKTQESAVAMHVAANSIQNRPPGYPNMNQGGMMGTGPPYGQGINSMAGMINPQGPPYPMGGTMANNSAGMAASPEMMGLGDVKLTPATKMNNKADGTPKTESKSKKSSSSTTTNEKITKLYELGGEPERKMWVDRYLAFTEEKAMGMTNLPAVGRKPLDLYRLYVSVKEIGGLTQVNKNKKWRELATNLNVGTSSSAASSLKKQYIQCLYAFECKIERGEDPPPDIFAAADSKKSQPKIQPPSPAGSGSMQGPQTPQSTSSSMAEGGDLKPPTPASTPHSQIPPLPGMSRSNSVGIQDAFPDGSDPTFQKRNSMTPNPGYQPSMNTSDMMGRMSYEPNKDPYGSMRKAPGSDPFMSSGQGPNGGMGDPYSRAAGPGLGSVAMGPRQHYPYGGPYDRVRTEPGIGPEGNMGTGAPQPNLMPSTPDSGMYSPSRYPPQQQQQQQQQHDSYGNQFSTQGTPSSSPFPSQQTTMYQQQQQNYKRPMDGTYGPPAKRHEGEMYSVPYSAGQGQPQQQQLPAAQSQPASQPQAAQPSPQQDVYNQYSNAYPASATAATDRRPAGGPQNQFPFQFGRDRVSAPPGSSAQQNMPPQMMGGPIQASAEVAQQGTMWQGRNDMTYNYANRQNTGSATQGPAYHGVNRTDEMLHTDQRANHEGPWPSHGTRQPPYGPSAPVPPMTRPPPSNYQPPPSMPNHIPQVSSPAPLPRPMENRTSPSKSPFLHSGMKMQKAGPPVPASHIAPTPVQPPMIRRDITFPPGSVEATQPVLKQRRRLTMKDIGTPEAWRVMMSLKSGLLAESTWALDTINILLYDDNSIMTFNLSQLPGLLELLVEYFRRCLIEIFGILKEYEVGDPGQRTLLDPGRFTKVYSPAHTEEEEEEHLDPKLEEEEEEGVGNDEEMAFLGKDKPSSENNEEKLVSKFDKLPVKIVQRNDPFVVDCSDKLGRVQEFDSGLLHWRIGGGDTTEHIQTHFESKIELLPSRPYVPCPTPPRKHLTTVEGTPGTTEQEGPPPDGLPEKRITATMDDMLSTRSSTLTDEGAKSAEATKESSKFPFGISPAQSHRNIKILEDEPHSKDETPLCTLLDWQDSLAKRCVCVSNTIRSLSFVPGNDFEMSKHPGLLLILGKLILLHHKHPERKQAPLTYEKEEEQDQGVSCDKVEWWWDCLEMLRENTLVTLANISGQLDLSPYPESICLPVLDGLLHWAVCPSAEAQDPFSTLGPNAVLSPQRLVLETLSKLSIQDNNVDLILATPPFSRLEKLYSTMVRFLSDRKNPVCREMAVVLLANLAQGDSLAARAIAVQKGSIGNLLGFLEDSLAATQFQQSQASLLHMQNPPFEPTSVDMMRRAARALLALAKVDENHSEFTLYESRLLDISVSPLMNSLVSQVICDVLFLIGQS
UniProt Q3TKT4: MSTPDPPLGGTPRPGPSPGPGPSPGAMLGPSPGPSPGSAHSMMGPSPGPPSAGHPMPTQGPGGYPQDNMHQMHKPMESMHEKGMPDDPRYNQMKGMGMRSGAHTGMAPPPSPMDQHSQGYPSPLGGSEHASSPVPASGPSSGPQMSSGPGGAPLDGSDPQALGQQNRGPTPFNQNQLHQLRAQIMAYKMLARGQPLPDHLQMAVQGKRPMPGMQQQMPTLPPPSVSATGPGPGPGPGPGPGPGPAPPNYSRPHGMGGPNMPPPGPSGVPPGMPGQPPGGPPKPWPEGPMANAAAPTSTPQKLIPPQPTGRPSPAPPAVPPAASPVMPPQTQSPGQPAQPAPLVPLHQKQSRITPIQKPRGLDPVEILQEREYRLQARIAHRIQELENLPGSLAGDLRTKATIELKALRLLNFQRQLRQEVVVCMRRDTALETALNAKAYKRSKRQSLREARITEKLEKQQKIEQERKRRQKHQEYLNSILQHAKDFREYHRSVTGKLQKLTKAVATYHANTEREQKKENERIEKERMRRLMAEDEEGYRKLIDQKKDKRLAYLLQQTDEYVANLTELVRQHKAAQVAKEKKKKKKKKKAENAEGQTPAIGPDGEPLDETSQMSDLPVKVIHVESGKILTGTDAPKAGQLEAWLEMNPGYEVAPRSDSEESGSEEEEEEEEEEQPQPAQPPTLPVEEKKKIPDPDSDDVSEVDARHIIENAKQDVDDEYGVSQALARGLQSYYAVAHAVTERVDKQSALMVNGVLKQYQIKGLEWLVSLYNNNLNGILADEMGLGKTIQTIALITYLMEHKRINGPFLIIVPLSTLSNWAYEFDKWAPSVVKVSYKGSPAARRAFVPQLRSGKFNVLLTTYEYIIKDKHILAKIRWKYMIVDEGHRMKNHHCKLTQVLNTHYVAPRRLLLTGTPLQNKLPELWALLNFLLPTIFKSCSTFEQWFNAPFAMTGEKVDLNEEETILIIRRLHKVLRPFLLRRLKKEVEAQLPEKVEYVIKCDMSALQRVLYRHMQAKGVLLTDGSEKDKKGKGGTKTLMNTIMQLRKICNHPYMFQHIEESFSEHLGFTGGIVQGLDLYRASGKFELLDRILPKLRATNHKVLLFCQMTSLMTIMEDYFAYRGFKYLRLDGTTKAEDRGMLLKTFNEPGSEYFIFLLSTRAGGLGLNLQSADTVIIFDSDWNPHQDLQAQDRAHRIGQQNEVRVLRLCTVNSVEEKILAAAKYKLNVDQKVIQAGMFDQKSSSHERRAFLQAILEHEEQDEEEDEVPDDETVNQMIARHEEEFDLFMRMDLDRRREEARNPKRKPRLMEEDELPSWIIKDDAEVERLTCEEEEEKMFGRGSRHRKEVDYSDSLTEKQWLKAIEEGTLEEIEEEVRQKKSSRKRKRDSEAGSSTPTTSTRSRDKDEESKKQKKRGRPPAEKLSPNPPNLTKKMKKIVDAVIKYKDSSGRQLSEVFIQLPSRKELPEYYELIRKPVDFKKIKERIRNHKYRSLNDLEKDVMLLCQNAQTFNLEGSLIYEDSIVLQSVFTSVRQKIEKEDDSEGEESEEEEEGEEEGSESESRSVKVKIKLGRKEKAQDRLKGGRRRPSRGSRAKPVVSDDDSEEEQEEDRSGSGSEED
UniProt Q99JR8: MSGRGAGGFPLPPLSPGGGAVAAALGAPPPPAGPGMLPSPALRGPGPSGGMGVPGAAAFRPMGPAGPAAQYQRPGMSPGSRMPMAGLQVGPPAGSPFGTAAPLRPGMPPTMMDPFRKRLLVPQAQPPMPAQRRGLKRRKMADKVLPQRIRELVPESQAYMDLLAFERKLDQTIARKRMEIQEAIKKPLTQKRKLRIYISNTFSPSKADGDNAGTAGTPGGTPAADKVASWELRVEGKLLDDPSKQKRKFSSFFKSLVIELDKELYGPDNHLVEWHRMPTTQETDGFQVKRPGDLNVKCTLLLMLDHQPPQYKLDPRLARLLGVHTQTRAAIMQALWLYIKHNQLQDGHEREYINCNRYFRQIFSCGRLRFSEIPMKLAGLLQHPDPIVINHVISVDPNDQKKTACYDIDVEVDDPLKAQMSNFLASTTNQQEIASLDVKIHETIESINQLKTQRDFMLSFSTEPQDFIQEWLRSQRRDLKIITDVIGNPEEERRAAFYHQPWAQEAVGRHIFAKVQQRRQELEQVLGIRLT
UniProt P37238: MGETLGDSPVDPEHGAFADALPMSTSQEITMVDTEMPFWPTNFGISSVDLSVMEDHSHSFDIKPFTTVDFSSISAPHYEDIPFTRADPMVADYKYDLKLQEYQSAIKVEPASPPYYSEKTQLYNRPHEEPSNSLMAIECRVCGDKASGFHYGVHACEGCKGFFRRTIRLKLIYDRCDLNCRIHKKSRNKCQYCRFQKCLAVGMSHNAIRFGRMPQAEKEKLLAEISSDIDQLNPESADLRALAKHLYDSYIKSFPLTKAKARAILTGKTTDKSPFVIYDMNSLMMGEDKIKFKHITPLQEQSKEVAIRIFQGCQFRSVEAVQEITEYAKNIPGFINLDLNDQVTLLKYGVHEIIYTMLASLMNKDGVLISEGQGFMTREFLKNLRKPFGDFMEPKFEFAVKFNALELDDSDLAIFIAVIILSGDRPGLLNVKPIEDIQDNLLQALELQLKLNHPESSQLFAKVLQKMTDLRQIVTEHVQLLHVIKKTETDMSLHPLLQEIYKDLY

Experiments:
[1] = target: T1, V5-tagged S265A-hJMJD1A (human) (UniProt Q9Y4C1); experiment: co-IP; IP with anti-V5 from nuclear extracts of WT- or S265A-hJMJD1A-iBAT^shs treated with ISO (10 uM for 1 h) or vehicle; IB with anti-BRG1, anti-ARID1A, anti-BAF60b or anti-PPARγ; 50 mM HEPES-KOH pH 7.9, 150 mM NaCl, 1.5 mM MgCl2, 1% NP-40, 6 h at 4 °C
T1 sequence: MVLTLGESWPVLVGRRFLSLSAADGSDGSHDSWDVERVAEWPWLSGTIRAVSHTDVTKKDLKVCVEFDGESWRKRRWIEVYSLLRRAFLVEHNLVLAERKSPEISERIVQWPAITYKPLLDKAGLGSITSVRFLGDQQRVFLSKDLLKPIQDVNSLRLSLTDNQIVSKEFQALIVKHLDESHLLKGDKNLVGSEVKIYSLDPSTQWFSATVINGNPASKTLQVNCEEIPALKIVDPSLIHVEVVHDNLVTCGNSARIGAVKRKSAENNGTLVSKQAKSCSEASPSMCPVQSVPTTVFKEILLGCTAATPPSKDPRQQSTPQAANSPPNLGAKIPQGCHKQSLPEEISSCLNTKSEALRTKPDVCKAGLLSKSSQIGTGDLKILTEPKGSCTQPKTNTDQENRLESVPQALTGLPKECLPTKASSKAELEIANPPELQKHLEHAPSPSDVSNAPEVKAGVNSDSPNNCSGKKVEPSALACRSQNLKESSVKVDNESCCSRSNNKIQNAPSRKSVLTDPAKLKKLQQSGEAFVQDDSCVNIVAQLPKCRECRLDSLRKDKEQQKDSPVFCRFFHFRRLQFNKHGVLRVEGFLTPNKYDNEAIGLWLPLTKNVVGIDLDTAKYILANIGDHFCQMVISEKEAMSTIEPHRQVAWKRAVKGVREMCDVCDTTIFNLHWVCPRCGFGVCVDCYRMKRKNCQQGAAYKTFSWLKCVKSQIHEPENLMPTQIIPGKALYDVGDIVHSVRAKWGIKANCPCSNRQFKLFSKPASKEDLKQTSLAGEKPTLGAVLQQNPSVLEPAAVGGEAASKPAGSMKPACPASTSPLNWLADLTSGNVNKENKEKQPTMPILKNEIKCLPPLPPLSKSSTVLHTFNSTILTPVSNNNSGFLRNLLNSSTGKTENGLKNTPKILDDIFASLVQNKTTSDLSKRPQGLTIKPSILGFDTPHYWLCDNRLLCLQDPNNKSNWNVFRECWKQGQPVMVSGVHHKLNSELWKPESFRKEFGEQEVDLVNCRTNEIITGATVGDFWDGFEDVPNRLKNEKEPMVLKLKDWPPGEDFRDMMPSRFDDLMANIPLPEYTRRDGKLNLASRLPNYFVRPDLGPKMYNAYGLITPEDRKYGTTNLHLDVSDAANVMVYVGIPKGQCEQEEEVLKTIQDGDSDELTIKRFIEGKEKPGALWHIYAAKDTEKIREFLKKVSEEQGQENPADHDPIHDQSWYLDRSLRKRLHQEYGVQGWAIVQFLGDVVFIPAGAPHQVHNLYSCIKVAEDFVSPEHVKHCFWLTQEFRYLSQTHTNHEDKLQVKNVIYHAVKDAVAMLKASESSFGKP

[2] = target: T2, phospho-S265-JMJD1A (V5-tagged WT-hJMJD1A from ISO-treated cells) (human) (UniProt Q9Y4C1); experiment: as above
T2 sequence (chain, phosphoserine at 265): T1 sequence with A265S

[3] = target: T1, V5-tagged S265A-hJMJD1A (human); experiment: co-IP; cells pre-cultured 6 h in DMEM with 0.1% bovine serum albumin, then ISO (10 uM for 1 h) or vehicle; IP of nuclear extracts with anti-V5, IB with anti-PPARγ

Substance	binding [1]	binding [2]	binding [3]
AT-rich interactive domain containing protein 1A (ARID1A) (from UniProt A2BH40 1-2283)	binds weakly	binds	–
BRG1 (also referred to as SMARCA4) (from UniProt Q3TKT4 1-1613)	binds weakly	binds	–
BRG1-associated factor of 60 kDa, subunit b (BAF60b) (from UniProt Q99JR8 1-531)	binds weakly	binds	–
peroxisome proliferator-activated receptor-gamma (PPARγ) (from UniProt P37238 1-505)	–	–	no binding
